Reference: PubChem BioAssay AID493208 (National Center for Advancing Translational Sciences (NCATS), 2011)
The whole screen tested about 44,000 compounds, of which about 340 (0.77%) were called active. Another 5% or so got no clear call; they are omitted. Calls come from the whole dose curve; as a rule, active = well fitted inhibition curve with a large enough effect; inconclusive = small, poorly fitted or top-dose-only effect; inactive = flat fitted curve, though single readings scatter. The list shows a part of the results.

Experiment: Acumen qHTS Assay for Inhibitors of the mTORC1 Signaling Pathway in MEF (Tsc2-/-, p53-/-) Cells: Sytravon;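 note: plate controls were DMSO for no effect and rapamycin for full effect; nearly all actives have a fitted effect of over 50% in size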
Conditions: phospho-rpS6 immunofluorescence/PI, 24 h; series mostly up to 38.3 µM; activity change, negative = inhibition: at the top concentration
In short: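 Read-out: phospho-S6 Alexa-488 intensity over PI intensity per well, scored as % active cells using thresholds from rapamycin (7.5 nM) and DMSO controls. Tsc2-/-, p53-/- MEFs exposed to compound for 24 h; PI cell count recorded as viability.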

Activity change, negative = inhibition, inactive:
Cc1ccccc1CN1C(=O)c2ccccc2Sc2ccc(C(=O)NCCc3ccccc3)cc21 -4.31%
Cc1ccc2nc(NC(=O)c3ccc(S(=O)(=O)N4CCC(C)CC4)cc3)sc2c1 -9.63%
Cc1ccc(N2CC(NC(=O)c3cccs3)CC2=O)cc1 (configuration not stated) 0.481%
CCc1cccc(CC)c1NC(=O)c1c(C)oc2ccc(O)c(CN3CCCC3)c12 -13.4%
O=C(CCCN1C(=O)c2cccnc2Oc2ccc(Cl)cc21)NCc1ccc(F)cc1 -6.17%
CN1CCN(CCNC(=O)c2cnn(-c3ccc(F)cc3)c2C2CCN(C(=O)OC(C)(C)C)CC2)CC1 0.561%
Cc1ccc(N2C(=O)CSC23C(=O)N(CC(=O)NCc2ccccc2)c2ccccc23)cc1 (configuration not stated) 0.16%
Cc1ccc2c(c1)C(=O)OC(C(=O)Nc1ccccc1C(=O)O)C2 (configuration not stated) -1.97%
CCOc1ccc(-n2cc(-c3ccccc3)c3c(NC4CCCC4)ncnc32)cc1 0%
O=C(CN1C(=O)C2(SCC(=O)N2c2ccc(F)cc2)c2ccccc21)NC1CCCCC1 (configuration not stated) 3.52%
Cc1ccccc1Nc1nc(N)c(C(=O)c2ccccc2Cl)s1 -5.05%
Cc1cc2oc(C(=O)N(Cc3ccc(N(C)C)cc3)Cc3ccco3)c(C)c2cc1Cl 0.752%
CCCCc1ccc(NC(=O)CSc2nc(=O)[nH]c3c2CCCC3)cc1 2.61%
O=C1C(=O)N(C2CCN(C(=O)c3cccc(Cl)c3)CC2)CCN1Cc1ccc(F)cc1 5.67%
CCOc1ccc(S(=O)(=O)N2CCN(Cc3nc4ccc(C)cc4o3)CC2)cc1 0.632%
O=C(CSc1nc2c([nH]c3ccccc32)c(=O)n1-c1ccccc1F)Nc1cccc(C(F)(F)F)c1 -11.6%
CCOc1ccc(NC(=O)c2cnc3sc(N4CCOCC4)nn3c2=O)cc1 -5.7%
COc1cccc(N2CC(NC(=O)COc3ccccc3F)CC2=O)c1 (configuration not stated) -10.8%
Cc1ccc(C)c(NC(=O)CSc2ccc3nc(-c4ccccc4)cn3n2)c1 -6.27%
CCOc1ccc(CCNC(=O)Cn2c(-c3cccs3)cc3ccccc32)cc1OCC -1.21%
O=C(Nc1cccc(C(=O)OCc2cc(=O)n3nc(C4CC4)sc3n2)c1)c1cccc(Cl)c1 0%
COc1ccc(Nc2oc(/C=C/c3ccccc3OC)nc2C#N)cc1 -13.6%
COC(=O)CCN(c1ccccc1)C(CNS(=O)(=O)c1ccccc1)c1ccccc1 (configuration not stated) -22.1%
Cc1nc2cc(-c3cccc(F)c3)nn2c(C)c1CCC(=O)NC(C)c1ccccc1 (configuration not stated) -5.5%
COc1cc(C(=O)NCCc2sc(-c3cccc(F)c3)nc2C)cc(OC)c1OC -9.73%
O=C(Nc1ccccc1Br)c1cc(CN2CCCC2)on1 -7.28%
COC(=O)c1c(NC(=O)C2c3ccccc3Oc3ccccc32)sc2c1CCC(C(C)(C)C)C2 (configuration not stated) -9.29%
COc1cc2c(cc1NC(=O)c1ccccc1C)n(C)c(=O)n2C -2.07%
CCc1ccc(CNC(=O)c2ccc(-c3nc(CSc4ccc(C)cc4)c(C)o3)cc2)cc1 -9.27%
COc1cccc(-c2cc(C(=O)NCc3ccc(F)cc3)no2)c1 3.52%
COc1cccc(CNC(=O)CCn2cnc3ccccc3c2=O)c1 -1.49%
O=C(CCN1C(=O)c2ccccc2Sc2ncccc21)Nc1ccc(F)cc1 -7.35%
CC(CCc1ccccc1)NC(=O)Cn1ncc2c3ccccc3n(Cc3ccccc3)c2c1=O (configuration not stated) -5.59%
CC(C)CNc1ncnc2onc(-c3ccc(Cl)cc3)c12 -22.8%
CCOC(=O)c1ccc(NC(=O)c2oc3c(c2C)-c2nn(Cc4ccccc4Cl)cc2CC3)cc1 4.57%
COc1ccc(-c2nnc(SCC(=O)Nc3c(C)cccc3C)nc2-c2ccc(OC)cc2)cc1 3.18%
COc1ccc(S(=O)(=O)N2CCC(n3c(C)nc4cccnc43)CC2)cc1Cl -4.57%
Cc1ccc(C)c(N2CCN(S(=O)(=O)c3cc(C(=O)Nc4ccccc4C(F)(F)F)ccc3F)CC2)c1 15%
CC(Oc1ccccc1)C(=O)Nc1c(C(=O)Nc2cccc(F)c2)oc2ccccc12 (configuration not stated) -5.81%
CCOC(=O)c1c(NC(=O)COc2ccc(Cl)cc2Cl)sc2c1CCCCC2 -4.94%
CCc1ccc(S(=O)(=O)Nc2cc3c(cc2C)n(C)c(=O)c(=O)n3C)cc1 -9.1%
CN(C)c1ccc(CNC(=O)Cn2c(-c3cccs3)cc3cc(Cl)ccc32)cc1 0.0355%
Nc1c(-c2nc(-c3ccccc3Cl)no2)nnn1-c1ccccc1C(F)(F)F -4.92%
COc1ccccc1NC(=O)N1CCN(c2nnc(C)c3c(C)n(-c4ccccc4)nc23)CC1 -30.5%
O=c1c2oc3ccccc3c2n(Cc2ccccc2F)c(=O)n1Cc1ccc2c(c1)OCO2 3.15%
CCN(CC)S(=O)(=O)c1ccc(NC(=O)c2c(C)oc3ncnc(N4CCCCC4)c23)cc1 6.54%
CCN(CC)CCN(C(=O)c1ccco1)c1nc2ccc(F)cc2s1 -14.8%
Cc1ccc(-c2nnc(SCC(=O)NCc3ccccc3)o2)cc1 3.28%
COc1ccc(OC)c(CCNC(=O)CCCn2c(=O)c3cccn3c3cccnc32)c1 1.69%
CCOc1ccc(CNS(=O)(=O)c2ccc3c(c2)CC(C)N3C(C)=O)cc1OC (configuration not stated) -8.97%
O=C(NCc1ccccc1)c1ccc(CS(=O)(=O)c2c(Cl)cccc2Cl)o1 2.62%
Cc1ccc(NC(=O)Cn2nc(C)c3nn(-c4ccc(Cl)cc4)c(C)c3c2=O)cc1F 11.4%
COc1ccc(N2CCN(C(=O)CSc3nc(-c4ccccc4)no3)CC2)cc1 10.1%
COc1ccc(CNC(=O)c2cnn(-c3ccccc3)c2-n2cccc2)cc1OC -22.1%
COc1ccc(-c2n[nH]c3c2C(c2ccccn2)N(C)C3=O)cc1 (configuration not stated) -2.1%
COc1ccc(-n2nc3c(N4CCC(C(=O)NC5CCCCC5)CC4)nnc(C)c3c2C)cc1 0.767%
CCOc1ccc(OCC)c(NC(=O)CN(C)S(=O)(=O)c2ccc3[nH]c(=O)oc3c2)c1 0%
CCOC(=O)c1[nH]c(C)c(CCC(=O)N2CCN(c3cc(C)ccc3C)CC2)c1C 0%
Cc1ccc2oc(=O)c3cnn(CC(=O)N4CCN(c5cccc(Cl)c5)CC4)c3c2c1 -11.2%
Cc1cccc(C(=O)Nc2ccc3nc(SCC(=O)N4CCCC4)sc3c2)c1 -5.47%
O=C(CSc1nc(=O)[nH]c2c1CCC2)Nc1cc(C(F)(F)F)ccc1Cl -1.15%
Cc1cc(C(=O)NCCc2ccc(Cl)cc2)c2c(C)nn(-c3ccccc3)c2n1 3.72%
